Results from PubChem BioAssay AID1347165 (National Center for Advancing Translational Sciences (NCATS), 2019).
Screen size: about 220,000 compounds; about 5,700 (2.6%) were called active. Inconclusive means that the source gave no clear call. Such entries were picked first, then a sample of the others. Calls follow the shape of the dose curve; as a rule, active = well fitted inhibition curve with a large enough effect; inconclusive = small, poorly fitted or top-dose-only effect; inactive = no such curve, though single readings can be large or run the other way. Potencies of inconclusive entries are doubtful fits and often do not repeat.

Each molecule was assayed against Lysine-specific demethylase 5B (Homo sapiens) (UniProt Q9UGL1) (assay: Primary screen for KDM5B Histone Demethylases FDH-coupled qHTS). Conditions: FDH-coupled NADH fluorescence (FDH is formaldehyde dehydrogenase); activity change, negative = inhibition: at 57.7 µM (top of the series) unless noted.
UniProt Q9UGL1, sequence (Q9UGL1 whole entry, looked up): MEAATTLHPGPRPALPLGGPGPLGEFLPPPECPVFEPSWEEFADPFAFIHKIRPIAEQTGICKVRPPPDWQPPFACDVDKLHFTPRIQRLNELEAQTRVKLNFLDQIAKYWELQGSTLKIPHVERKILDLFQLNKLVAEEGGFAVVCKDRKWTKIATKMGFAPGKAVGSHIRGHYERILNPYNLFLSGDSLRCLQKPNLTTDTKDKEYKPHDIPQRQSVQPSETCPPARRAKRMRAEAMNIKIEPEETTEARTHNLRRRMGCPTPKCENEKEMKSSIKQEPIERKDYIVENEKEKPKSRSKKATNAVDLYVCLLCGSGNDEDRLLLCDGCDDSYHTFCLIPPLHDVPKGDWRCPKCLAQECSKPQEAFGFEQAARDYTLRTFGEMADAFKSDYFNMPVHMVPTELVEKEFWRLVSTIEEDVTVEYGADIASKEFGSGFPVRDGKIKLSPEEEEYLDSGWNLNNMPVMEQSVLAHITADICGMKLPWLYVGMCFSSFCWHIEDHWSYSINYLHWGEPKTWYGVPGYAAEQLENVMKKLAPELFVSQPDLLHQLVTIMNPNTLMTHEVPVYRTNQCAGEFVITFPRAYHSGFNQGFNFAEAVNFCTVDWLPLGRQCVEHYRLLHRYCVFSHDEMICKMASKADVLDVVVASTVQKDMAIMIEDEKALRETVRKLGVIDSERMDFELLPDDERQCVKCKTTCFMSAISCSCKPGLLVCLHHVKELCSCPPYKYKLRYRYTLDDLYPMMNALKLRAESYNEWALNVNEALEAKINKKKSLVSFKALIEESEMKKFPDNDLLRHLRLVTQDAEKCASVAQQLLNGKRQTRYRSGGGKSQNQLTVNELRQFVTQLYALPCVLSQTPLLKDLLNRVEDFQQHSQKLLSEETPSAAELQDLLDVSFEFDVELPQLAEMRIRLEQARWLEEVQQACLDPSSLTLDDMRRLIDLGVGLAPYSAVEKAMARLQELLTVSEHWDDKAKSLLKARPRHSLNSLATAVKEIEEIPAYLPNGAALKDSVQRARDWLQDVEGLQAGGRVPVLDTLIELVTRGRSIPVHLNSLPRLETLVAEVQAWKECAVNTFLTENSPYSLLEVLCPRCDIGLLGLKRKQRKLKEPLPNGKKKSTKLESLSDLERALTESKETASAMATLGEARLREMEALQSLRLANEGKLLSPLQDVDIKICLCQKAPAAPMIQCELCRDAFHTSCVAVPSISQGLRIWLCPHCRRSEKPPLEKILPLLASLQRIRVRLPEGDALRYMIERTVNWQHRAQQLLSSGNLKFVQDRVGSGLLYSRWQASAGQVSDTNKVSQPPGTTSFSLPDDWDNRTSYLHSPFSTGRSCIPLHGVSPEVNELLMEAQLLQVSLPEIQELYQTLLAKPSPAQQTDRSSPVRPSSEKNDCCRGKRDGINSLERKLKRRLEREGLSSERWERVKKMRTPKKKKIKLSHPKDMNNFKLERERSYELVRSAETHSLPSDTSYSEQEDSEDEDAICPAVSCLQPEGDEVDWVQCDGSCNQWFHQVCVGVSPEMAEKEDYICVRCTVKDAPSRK
In short: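 Compound dilutions met 200 nM (final) KDM5BΔAP for 10 min at room temperature before substrate addition. The substrate mix held 12.5 µM H3K4me3 with cofactors 25 µM α-ketoglutarate and 50 µM Fe²⁺. NADH signal gain over 30 min defined activity.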
Also: nearly all actives have a fitted effect of over 70% in size.
For activity change, negative = inhibition in this document: 0% is about no effect.
Potency is read from the fitted curve at half-maximal effect; tags tell the direction and shape of the fitted curve.

Compound | activity change, negative = inhibition | Potency
COC(=O)c1ccc(CSc2nc3c([nH]c4ccccc43)c(=O)n2-c2ccc(OC)cc2)o1 | inactive: -16.2% | –
Cc1c(F)cccc1NC(=O)C1CN(S(=O)(=O)C2CC2)CC12CCCCC2 (centres undefined) | inactive: -1.27% | –
O=C(CSc1nc(=O)n(Cc2cccnc2)c2c1CCC2)N1CCCCCC1 | inactive: -18.4% | –
COc1ccc(Nc2cc(C)nc(Nc3ccc(NC(=O)C4CCCCC4)cc3)n2)cc1 | – | inconclusive: 28.2 µM [inhibitor, partial curve, poor fit]
CCOC(=O)c1scc(-c2ccccc2)c1S(=O)(=O)Nc1cc(Cl)c(OC)cc1OC | – | inconclusive: 14.1 µM [inhibitor, partial curve, poor fit]
Cc1ccc(C(=O)NC2CCN(c3cnn(CC4CC4)c(=O)c3)CC2)c(C)c1 | inactive: -10.1% | –
Cc1ccc(NC(=O)CSc2nc3ccccc3nc2N2CCOCC2)cc1 | – | inconclusive: 28.2 µM [inhibitor, partial curve, poor fit]
CCOC(=O)c1[nH]c2ccc(F)cc2c1NC(=O)C1CC1 | – | inconclusive: 22.4 µM [inhibitor, partial curve, poor fit]
N#Cc1cccc(-c2cn3c(n2)N(C(=O)c2cccs2)CCC3)c1 | – | active: 28.2 µM
O=C(O)C1CC2(CCN(C(=O)c3ccc4c(c3)OCCO4)CC2)CN1 (centres undefined) | inactive: -18.5% | –
COc1ccc(Cl)cc1NC(=O)N1CCN(c2ccccc2OC)CC1 | inactive: 2.99% | –
Cc1ccc(-n2cnnn2)cc1NC(=O)c1sccc1C | inactive: 13.2% | –
O=C(COc1ncnc2c(Cl)cc(Cl)cc12)NCc1ccccc1Cl | inactive: 29.3% | –
O=C(Cc1ccc(Br)cc1)NCc1nnc2ccc(-c3ccccc3)nn12 | – | inconclusive: 15.8 µM [inhibitor, partial curve, poor fit]
Cc1nn(Cc2ccccc2)c(C)c1CNS(=O)(=O)c1ccc(F)cc1 | inactive: 16.2% | –
Cc1nc([C@@H]2CN(C(=O)CN3CCCCCC3)C[C@H]2C(N)=O)n[nH]1 | inactive: -23.8% | –
O=c1n(CC2CC2)nc2n1CCN(S(=O)(=O)c1cccnc1)CC2 | – | inconclusive: 20 µM [inhibitor, partial curve, poor fit]
O=C(CSc1ncc(-c2ccc(Cl)cc2)o1)Nc1ccc(F)cc1 | inactive: 5.5% | –
COc1cccc(CN2CC[C@H]3COC(=O)N3c3cc(F)ccc3C2)c1 | inactive: 10.5% [at 86.2 µM] | –
CN(CC(=O)N1CCN(c2oc(-c3ccco3)nc2C#N)CC1)Cc1cccc(Cl)c1Cl | – | inconclusive: 20 µM [inhibitor, partial curve, poor fit]
CCc1ccccc1NC(=O)c1cc(S(=O)(=O)NC2CC2)ccc1C | inactive: 3.34% | –
Cc1ccc2[nH]c(-c3ccccc3)c(-c3ccccc3)c2c1 | inactive: -5820% | –

Compound | activity change, negative = inhibition | Potency
CCN(CC)CCNC(=O)c1ccc2c(=O)n3nc(Nc4ccccc4OC)sc3nc2c1 | – | inconclusive: 14.1 µM [inhibitor, partial curve, poor fit]
CCOc1ccc(-c2nc(CSCC(=O)NCc3ccc(Cl)cc3)c(C)o2)cc1 | – | inconclusive: 20 µM [inhibitor, partial curve, poor fit]
O=S1(=O)c2ccccc2N(Cc2cccc(Cl)c2)c2ccccc21 | – | inconclusive: 35.5 µM [inhibitor, partial curve, poor fit]
COc1cccc(CNC(=O)C2CCN(c3nnc(-n4c(C)ccc4C)s3)CC2)c1OC | inactive: -23.1% | –
COc1cccc(-c2cc(C(=O)N[C@@H](C)C(N)=O)[nH]n2)c1 | – | inconclusive: 11.2 µM [inhibitor, partial curve, poor fit]
CC(=O)c1cc2c(cc1N/C(=N/S(=O)(=O)c1ccc(C)cc1)c1ccc(F)cc1)OCO2 | – | inconclusive: 56.2 µM [inhibitor, single point]
CCCc1nc(N2CCOCC2)c(C#N)c2c1CCCC2 | – | inconclusive: 25.1 µM [inhibitor, partial curve, poor fit]
Cc1cc(C(=O)NCc2ccccc2Cl)c2c(C)nn(-c3ccccc3)c2n1 | – | inconclusive: 2.51 µM [inhibitor, partial curve, poor fit]
C=C(C)CN1CCN(C(C(=O)O)c2c(-c3ccccc3)[nH]c3ccccc23)CC1 (centres undefined) | – | inconclusive: 22.4 µM [inhibitor, partial curve, poor fit]
COc1ccc(CC(=O)N2CC[C@@H](CC(=O)O)[C@@H](CCN3CCN(c4ccccn4)CC3)C2)cc1 | – | inconclusive: 22.4 µM [inhibitor, single point]
CN1CCc2c(sc3nc(SCC(N)=O)n(-c4ccc(Cl)cc4)c(=O)c23)C1 | – | inconclusive: 25.1 µM [inhibitor, partial curve, poor fit]
CC[C@H]1CN(C(=O)Nc2cccc(C(F)(F)F)c2)CC[C@H]1CC(=O)N(CC)C(=O)NCCCN(C)C | – | inconclusive: 7.08 µM [inhibitor, single point]
CN(CC1CCOC1)C(=O)c1ccc(F)c(F)c1 (centres undefined) | inactive: -5.96% | –
COCC(=O)N1CC(C(=O)NCc2ccncc2)C2(CCOCC2)C1 (centres undefined) | inactive: -12.5% | –
CC(=O)c1ccc(N2CCN(S(=O)(=O)c3ccc4c(c3)C(C)(C)C(=O)N4)CC2)cc1 | – | inconclusive: 25.1 µM [inhibitor, partial curve, poor fit]
CCCn1c2c(c(=O)n(C)c1=O)C(c1ccccc1C)C1=C(COC1=O)N2 (centres undefined) | – | inconclusive: 28.2 µM [inhibitor, partial curve, poor fit]
CCOc1ccc(Oc2ccccc2NC(=O)c2cccc(CN3CCCC3=O)c2)cc1 | inactive: 2.99% | –
CCCn1c2ccccc2c2cnn(CC(=O)N(CCCOC)Cc3ccco3)c(=O)c21 | – | inconclusive: 28.2 µM [inhibitor, partial curve, poor fit]
COc1ccc(-c2nc(C(C)C)nc3c2CCN(C(=O)Cc2ccc(F)cc2)CC3)cc1 | inactive: -22.4% | –
COc1ccc2oc(=O)c(-c3cn4cccc(C)c4n3)cc2c1 | – | inconclusive: 14.1 µM [inhibitor, partial curve, poor fit]
CC(C)NC(=O)N1CCC2(CC1)CN(C(=O)Cc1csc(N)n1)Cc1ccccc1O2 | inactive: -5.84% [at 115 µM] | –
Cc1cccc2cc3cccc(C)c3nc12 | – | inconclusive: 31.6 µM [inhibitor, single point]
